# Measured values as given in PMC4336329 (PLoS ONE, 2015).
# The campaign covered roughly 310,000 compounds. About 14,000 (4.5%) showed an effect of 50% or more. Effects have a minus sign here. The list shows a part of the results.
# Target: human ether-à-go-go-related gene (hERG) potassium channel (human, UniProt Q12809)
# Assay: primary screen, population patch clamp on CHO cells stably expressing hERG
# 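Also: peak tail current of the secondary pulse compared with the same well before compound.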
# Chain of human ether-à-go-go-related gene (hERG) potassium channel (Q12809 whole entry, looked up): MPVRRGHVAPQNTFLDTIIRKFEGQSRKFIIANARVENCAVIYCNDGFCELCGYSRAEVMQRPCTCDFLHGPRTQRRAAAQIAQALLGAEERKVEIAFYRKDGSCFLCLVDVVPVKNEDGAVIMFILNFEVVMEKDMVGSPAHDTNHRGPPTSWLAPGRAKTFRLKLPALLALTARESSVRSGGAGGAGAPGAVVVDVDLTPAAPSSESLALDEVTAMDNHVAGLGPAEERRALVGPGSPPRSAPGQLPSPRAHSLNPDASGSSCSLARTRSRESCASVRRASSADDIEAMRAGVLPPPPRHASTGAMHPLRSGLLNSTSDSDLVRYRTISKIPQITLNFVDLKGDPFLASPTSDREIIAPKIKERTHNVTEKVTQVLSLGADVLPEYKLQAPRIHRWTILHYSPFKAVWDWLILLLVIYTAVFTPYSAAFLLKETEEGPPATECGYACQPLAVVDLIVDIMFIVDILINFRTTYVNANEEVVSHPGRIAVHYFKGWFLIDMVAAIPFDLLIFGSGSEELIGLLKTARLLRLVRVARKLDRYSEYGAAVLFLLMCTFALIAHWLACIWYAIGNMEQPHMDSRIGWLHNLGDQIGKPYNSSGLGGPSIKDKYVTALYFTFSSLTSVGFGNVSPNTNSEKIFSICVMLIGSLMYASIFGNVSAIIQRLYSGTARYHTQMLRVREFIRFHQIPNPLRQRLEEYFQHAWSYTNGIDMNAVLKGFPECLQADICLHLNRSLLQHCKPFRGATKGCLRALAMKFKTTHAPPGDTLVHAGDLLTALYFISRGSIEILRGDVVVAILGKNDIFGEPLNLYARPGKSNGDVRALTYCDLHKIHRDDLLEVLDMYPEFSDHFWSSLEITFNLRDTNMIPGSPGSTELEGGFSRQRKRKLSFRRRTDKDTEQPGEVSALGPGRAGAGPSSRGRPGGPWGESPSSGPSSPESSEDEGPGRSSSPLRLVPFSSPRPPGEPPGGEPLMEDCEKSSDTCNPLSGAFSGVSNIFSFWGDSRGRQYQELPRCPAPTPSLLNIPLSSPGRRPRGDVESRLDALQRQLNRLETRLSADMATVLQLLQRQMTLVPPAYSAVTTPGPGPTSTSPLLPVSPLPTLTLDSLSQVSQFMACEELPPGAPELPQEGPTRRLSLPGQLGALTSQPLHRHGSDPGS
row,Compound,"hERG current change (%, negative = inhibition) at 10uM"
1,O=C(Nc1ccc2c(c1)OCCO2)c1ccccc1,6.91%
2,CC(=O)c1cccc(NC(=O)Nc2ccc3c(c2)OCO3)c1,7.14%
3,Cc1ccc(-c2c[n+](CC(=O)Nc3c(C)cccc3C)c3n2CCC3)cc1.[Cl-],14.1%
4,CCc1cc(C)cc(OCCNC(=O)c2ncn[nH]2)c1,13.3%
5,O=[N+]([O-])c1cc(C(F)(F)F)ccc1NCCc1ccncc1,-4.62%
6,O=C(CN1C(=O)NC2(CCCC2)C1=O)Nc1nc2c(F)cc(F)cc2s1,-17.1%
7,O=C(Cc1ccc(F)cc1)N1CCC(N2CCC(C(=O)N3CCOCC3)CC2)CC1,9.76%
8,C=CCN(C(=O)CNC(=O)c1cccs1)C(C(=O)NC(C)(C)C)c1ccccc1 (stereo not drawn),6.11%
9,CCC1=NN(C(=O)c2cccnc2)C(O)(C(F)(F)F)C1 (stereo not drawn),3.08%
10,OCCC1CN(C2CCN(c3ccccc3)CC2)CCN1Cc1ccc(F)c(F)c1 (stereo not drawn),-71.2%
11,O=c1cccc2n1C[C@@H]1CNC[C@H]2C1,-6.53%
12,O=C(NNC(=O)c1cc(-c2ccc(Cl)c(Cl)c2)nc2ccccc12)Nc1ccccc1,-1.4%
13,COc1ccc(Cl)cc1NC(=O)Nc1ccccc1C(N)=O,22.2%
14,CCOC(=O)C1CCCN(CCCc2ccccc2)C1 (stereo not drawn),-39.1%
15,O=C(O)c1cccc(S(=O)(=O)Nc2ccc(O)cc2Sc2nc3ccccc3s2)c1,28.5%
16,FC(F)(F)c1cccc(NC(=S)NCc2ccccn2)c1,2.89%
17,CCOC(=O)c1cc(-c2cccnc2)nn1-c1ccccn1,0.506%
18,COc1ccc(C(=O)Nc2nc3cc(OC)c(OC)cc3c(=O)[nH]2)cc1,8.77%
19,O=C(Nc1nnc(C2CC2)s1)c1cc(S(=O)(=O)N2CCN(c3ccccc3)CC2)ccc1Cl,-0.722%

row,Compound,"hERG current change (%, negative = inhibition) at 10uM"
1,CC1CCCN1CC#CC(O)(c1ccccc1)c1ccccc1.Cl (stereo not drawn),-60.7%
2,O=C(NCC(c1cccnc1)N1CCOCC1)Nc1ccccc1 (stereo not drawn),12.4%
3,C=CCNCc1ccc(C(=O)NCCCCCCC)cc1[N+](=O)[O-],-48.9%
4,CCOC(=O)c1ccc(NC(=O)COc2ccc(S(=O)(=O)N3CCCC3)cc2)cc1,-10.3%
5,COc1ccccc1NC(=O)N1CCN(c2ccc3nnc(-c4ccc(F)cc4)n3n2)CC1,-68.9%
6,COC(=O)C1=CO[C@@H](OC2OC(CO)C(O)C(O)C2O)[C@@H]2[C@@H](C)[C@@H](O)C[C@H]12 (stereo partly drawn),5.74%
7,COc1ccc(Cl)cc1NC(=O)CN1CCCCCC1,-8.36%
8,CN(C)CCCNc1ncnc2scc(-c3ccccc3)c12.O=C(O)C(=O)O,-27.9%
9,O=C(Nc1ccc(NC(=O)c2cccnc2)cc1)c1ccccc1,-6.08%
10,COc1ccc(CC(=O)NNC(=O)c2cnccn2)cc1,13.6%
11,COC(=O)C1=C(C(=O)OC)C2(OC1c1cccc(F)c1)C(=O)c1ccccc1C2=O (stereo not drawn),6.43%
12,O=C(CSc1ccc(Cl)cc1)Nc1cccc(-c2nnc(-c3ccco3)o2)c1,9.64%
13,O=c1cc(-c2ccc(O)cc2)oc2cc(O)c(C3OC(CO)C(O)C(O)C3O)c(O)c12 (stereo not drawn),10.4%
14,CCCCN1CCNC[C@@H]1Cc1ccccc1,10.1%
15,CCOC(=O)C(=CNc1ccc(C#N)cc1)C(=O)OCC,-45.3%
16,COc1ccccc1NC(=O)Nc1ccc(NC(=O)c2ccccc2O)cc1,0.427%
17,CCOc1ccc(N(CC(=O)Nc2ccc(OC)cc2)S(C)(=O)=O)cc1,3.39%
18,NS(=O)(=O)c1ccc(NC(=S)NC(=O)c2cccnc2)cc1,14.9%
19,S=C(NCc1ccccc1)Nc1ccc(Cl)cc1,-25.1%

row,Compound,"hERG current change (%, negative = inhibition) at 10uM"
1,Cc1cccnc1NC(=S)Nc1ccc(Cl)c(Cl)c1,5.76%
2,COC(=O)c1cccc(NC(=O)c2ccc3c(c2)C(=O)N(CC2CCCO2)C3=O)c1 (stereo not drawn),-24.3%
3,CC(C)(C)Nc1nc(SCC(=O)Nc2ccccc2)nc(N2CCOCC2)n1,8.08%
4,CCN(CC)S(=O)(=O)c1ccc(N/N=C/c2ccc(O)cc2O)nc1,4.31%
5,Cn1cc(CN2CCC(n3nccc3NC(=O)c3ccccc3Cl)CC2)c2ccccc21,-68.6%
6,O=C(N/C(=C/c1cccnc1)C(=O)N1CCOCC1)c1ccco1,6.59%
7,O=C(OCCc1cc2ccccc2c(=O)o1)c1ccccc1C(F)(F)F,-0.264%
8,Cc1ccccc1N(C(=O)c1ccccn1)C(C(=O)NCc1ccccc1)c1ccncc1 (stereo not drawn),9.38%
9,CCc1ccc2[nH]c(=O)c(C(c3nnnn3Cc3ccccc3)N3CCOCC3)cc2c1 (stereo not drawn),-23.4%
10,COc1ccc([N+](=O)[O-])cc1NC(=O)c1cccnc1,-7.96%
11,O=C(COC(=O)C1(c2ccc(F)cc2)CCCC1)NC1CC1,0.676%
12,Cn1c(NC(=O)COc2ccccc2)cc(=O)n(C)c1=O,4.97%
13,Cc1c(C(=O)/C=C/N(C)C)nnn1-c1ccc(F)c(Cl)c1,2.73%
14,O=C(CN1CCCCC1)N/N=C/c1cccc(C(F)(F)F)c1,-38.9%
15,CCN(C(=S)NCCOC)c1cccc2ccccc12,8.8%
16,O=C(N/N=C/c1ccco1)C(O)c1ccccc1 (stereo not drawn),9.77%
17,S=C(NCCc1ccccc1)Nc1ccccc1N1CCOCC1,5.74%
18,Fc1cccc(/C=N/n2c(C3CCCCC3)n[nH]c2=S)c1,13.3%
19,CC1=C(C(=O)Nc2ccccc2)C(c2cccnc2)n2ncnc2N1 (stereo not drawn),13.7%
